Data as given in publication PMC6919601, “Identification of Plasmodium dipeptidyl aminopeptidase allosteric inhibitors by high throughput screening” (PLoS ONE, 2019).
Screen size: about 110,000 compounds; about 230 (0.21%) showed an effect of 50% or more. Some of the results follow.

Target: DPAP1 (Plasmodium falciparum, UniProt Q8IIJ9)
Assay: primary screen, percent inhibition; read by cleavage of a fluorogenic dipeptide substrate; higher = more effect of the substance
Design: species or system P. falciparum D10 trophozoite lysates; single well
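Further: 30 min substrate incubation versus DMSO and 10 µM JCP410 controls.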

DPAP1, sequence (Q8IIJ9 whole entry, looked up): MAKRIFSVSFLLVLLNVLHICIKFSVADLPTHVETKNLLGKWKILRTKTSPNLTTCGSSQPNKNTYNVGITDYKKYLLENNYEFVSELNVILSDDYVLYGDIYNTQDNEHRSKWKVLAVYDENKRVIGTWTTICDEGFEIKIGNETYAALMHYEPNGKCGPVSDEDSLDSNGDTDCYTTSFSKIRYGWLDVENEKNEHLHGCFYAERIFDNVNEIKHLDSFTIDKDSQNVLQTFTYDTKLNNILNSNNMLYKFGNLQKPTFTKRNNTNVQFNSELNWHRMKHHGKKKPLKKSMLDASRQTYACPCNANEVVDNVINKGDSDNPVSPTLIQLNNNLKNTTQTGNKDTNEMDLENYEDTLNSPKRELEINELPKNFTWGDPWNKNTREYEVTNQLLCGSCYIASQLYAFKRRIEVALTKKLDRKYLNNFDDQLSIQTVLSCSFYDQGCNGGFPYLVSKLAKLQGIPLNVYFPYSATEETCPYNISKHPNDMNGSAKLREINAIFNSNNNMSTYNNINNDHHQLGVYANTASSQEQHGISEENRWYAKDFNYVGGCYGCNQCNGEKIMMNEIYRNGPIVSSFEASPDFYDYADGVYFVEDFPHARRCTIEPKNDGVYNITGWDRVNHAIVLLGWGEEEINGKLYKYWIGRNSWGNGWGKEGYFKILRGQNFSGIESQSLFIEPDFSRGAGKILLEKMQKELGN

Compared with Cc1ccc(NC(=O)C(NC(=O)C2CCCCC2)C(C)C)nc1 (centres unmarked), CC(=O)N1CCC2(CC1)Oc1ccccc1C(=O)N2CC(=O)NC1CCCCC1 is higher in “% Inhibition @ 10 uM” value: -6.5% for the first, -1.6% for the second.

First: N#CCNC(=O)[C@@H](COCc1ccccc1)NC(=O)OCc1ccccc1
Second: CCc1ccc(CNCc2c(C(=O)O)n(Cc3ccccc3C)c3ccccc23)cc1
The “% Inhibition @ 10 uM” value of the first is higher: 0.079% for the first, -3.53% for the second.

First: CN(C)c1ccc(C(=O)c2ccc(O)cc2O)cc1
Second: O=C(O)c1ccc(S(=O)(=O)c2cc(C(=O)O)ccc2C(=O)O)cc1
The “% Inhibition @ 10 uM” value of the first is higher: 4.44% for the first, 0.937% for the second.

First: Cc1nn(CC(=O)NC(C)c2ccccc2)c(=O)c2cc3sccc3n12 (centres unmarked)
Second: Cc1[nH]c2ccccc2c1SCCNC(=O)c1cccc(Br)c1
The “% Inhibition @ 10 uM” value of the first is lower: 3.4% for the first, 4.02% for the second.

Going from Cc1ccc(C2=NN(CC(=O)NCCN(C)C)C(=O)CC2)cc1 to Cc1ccc(S(=O)(=O)N(CC(=O)N2CCC(C)CC2)c2cc(C)cc(C)c2)cc1, the “% Inhibition @ 10 uM” value falls from 3.79% to 1.62%.

First: CC1CC(C)(C)N(C(=S)Nc2ccccc2)N1c1ccccc1 (centres unmarked)
Second: COc1cc(N2CCCC2)c(OC)cc1/C=C1\NC(=O)N(CC(=O)Nc2ccccc2)C1=O
The “% Inhibition @ 10 uM” value of the first is lower: -0.744% for the first, 9.02% for the second.

First: O=C(Nc1sc2c(c1C(=O)NCC1CCCO1)CCCC2)c1ccc(Br)cc1 (centres unmarked)
Second: CCc1ccc2occ(CC(=O)Nc3sc4c(c3C(=O)OC)CCCC4)c2c1
The “% Inhibition @ 10 uM” value of the first is lower: -1.24% for the first, 4.18% for the second.

Compared with COc1ccccc1-c1nnc2sc(COc3ccccc3Cl)nn12, CCN1C(=O)/C(=C\c2ccc(OCC(N)=O)c(Br)c2)S/C1=N/c1ccccc1 is lower in “% Inhibition @ 10 uM” value: 2.89% for the first, -6.38% for the second.

First: O=C(c1ccccc1Cl)N1N=C(c2ccncc2)CC1(O)C(F)(F)F (centres unmarked)
Second: CCN(CC)S(=O)(=O)c1cccc(C(=O)Nc2cccc(O)c2)c1
The “% Inhibition @ 10 uM” value of the first is higher: 3.01% for the first, 1.64% for the second.

Compared with COc1cc(CN2CCN(Cc3ccccc3Br)CC2)cc(OC)c1OC, Cc1ccc(NCc2nc3ccccc3n2C)cc1C is lower in “% Inhibition @ 10 uM” value: -5.26% for the first, -7.96% for the second.

First: Cc1cccn2c(=O)c3cc(C(=O)N4CCCCC4)c(=N)n(CCN4CCOCC4)c3nc12
Second: Cc1nc2c(-c3ccccc3)c(C)nn2c(C)c1CC(=O)NCCC1=CCCCC1
The “% Inhibition @ 10 uM” value of the first is lower: 0.279% for the first, 4.14% for the second.

Going from CCOC(=O)c1c(NC(=O)c2cc(-c3cccc(O)c3)on2)sc(C(C)=O)c1C to Cc1ccc(/C=C/C(=O)Nc2ncc(Cc3ccc(F)cc3)s2)o1, the “% Inhibition @ 10 uM” value rises from -7.85% to 7.76%.

Going from c1cncc(C2OCC3(CO2)COC(c2cccnc2)OC3)c1 (centres unmarked) to N#CC1=C(N)OC2=C(C(=O)CC(c3ccco3)C2)C12C(=O)Nc1ccc(Br)cc12 (centres unmarked), the “% Inhibition @ 10 uM” value rises from -0.413% to 0.446%.
